# From the supplement of paper PMC12217912
# Some of the results follow. The full chains were built here from the parent and the listed change. Values near 0.05 are background.
# B1: TEV protease; numbered along this chain (parent)
# chain: MGESLFKGPRDYNPISSSICHLTNESDGHTTSLYGIGFGPFIITNKHLFRRNNGTLVVQSLHGVFKVKDTTTLQQHLVDGRDMIIIRMPKDFPPFPQKLKFREPQREERICLVTTNFQTKSMSSMVSDTSCTFPSGDGIFWKHWIQTKDGQCGSPLVSTRDGFIVGIHSASNFTNTNNYFTSVPKNFMELLTNQEAQQWVSGWRLNADSVLWGGHKVFMVKPEEPFQPVKEATQL
# Variants of: B1
# Test: raw area under fraction-flipped curve 0-4 h after induction (AUC4h, not background-subtracted), DNA-recorder readout of cleavage of the substrate (dimensionless); higher = more cleavage of the substrate by the protease variant
# Details: temperature: 34 °C; time window: 0-4 h after rhamnose induction
# 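Further: Bxb1 expression induced with 0.2% (w/v) L-rhamnose at OD600 near 0.5, cultures sampled hourly, flipped fraction per protease–substrate barcode pair counted by paired-end Illumina sequencing.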
Variant,area with substrate ENLYFQC,area with substrate ENLYFQF,area with substrate ENLYFQG,area with substrate ENLYFQI,area with substrate ENLYFQK,area with substrate ENLYFQL,area with substrate ENLYFQM,area with substrate ENLYFQN,area with substrate ENLYFQP,area with substrate ENLYFQQ,area with substrate ENLYFQR,area with substrate ENLYFQS,area with substrate ENLYFQT,area with substrate ENLYFQW,area with substrate ENLYFQH,area with substrate ENLYFQV,area with substrate ENLYFQY,area with substrate ENLYFQD,area with substrate ENLYFQE
MGESLFKGPRDYNPISSSICHLTNESDGHTTSLYGIGFGPFIITNKHLIRRNNGTLVVQSLHGVFKVKDTTTLQQHLVDGRDMIIIRMPKDFPPFPQKLKFREPQREERICLVTTNFQTKSMSSMVSDTSCTFPSGDGIFWKHWIQTKDGQCGSPLVSTRDGFIVGIHSASNFTNTNNYFTSVPKNFMELLTNQEAQQWVSGWRLNADSVLWGGHKVFMVKPEEPFQPVKEATQL [F49I],0.0576,0.0888,0.0616,0.0291,0.0647,0.0543,0.0597,0.0533,0.0658,0.0604,0.0563,0.064,0.061,0.0574,,,,,
MGESLFKGPRDYNPISSSICHLTNESDGHTTSLYGIGFGPFIITNKHLFRRNSGTLVVQSLHGVFKVKDTTTLQQHLVDGRDMIIIRMPKDFPPFPQKLKFREPQREERICLVTTNFQTKSMSSMVSDTSCTFPSGDGIFWKHWIQTKDGQCGSPLVSTRDGFIVGIHSASNFTNTNNYFTSVPKNFMELLTNQEAQQWVSGWRLNADSVLWGGHKVFMVKPEEPFQPVKEATQL [N53S],0.115,,,0.0547,,0.0573,0.121,0.0911,0.0587,0.0653,0.0566,0.0988,0.0599,0.0885,0.0595,0.0625,0.0425,,
MGESLFKGPRDYNPISSSICHLTNESDGHTTSLYGIGFGPFIITNKHLFRRNMGTLVVQSLHGVFKVKDTTTLQQHLVDGRDMIIIRMPKDFPPFPQKLKFREPQREERICLVTTNFQTKSMSSMVSDTSCTFPSGDGIFWKHWIQTKDGQCGSPLVSTRDGFIVGIHSASNFTNTNNYFTSVPKNFMELLTNQEAQQWVSGWRLNADSVLWGGHKVFMVKPEEPFQPVKEATQL [N53M],0.102,0.0592,0.0904,0.0708,0.06,0.0556,0.121,0.0835,,0.0855,0.0776,0.0861,0.0603,0.0631,0.0762,0.0611,0.0485,0.0641,
MGESLFKGPRDYNPISSSICHLTNESDGHTTSLYGIGFGPFIITNKHLFPRNNGTLVVQSLHGVFKVKDTTTLQQHLVDGRDMIIIRMPKDFPPFPQKLKFREPQREERICLVTTNFQTKSMSSMVSDTSCTFPSGDGIFWKHWIQTKDGQCGSPLVSTRDGFIVGIHSASNFTNTNNYFTSVPKNFMELLTNQEAQQWVSGWRLNADSVLWGGHKVFMVKPEEPFQPVKEATQL [R50P],0.0993,,0.0618,0.0647,0.0755,0.0627,0.0747,0.0778,0.0657,0.0763,0.0776,0.0885,0.0645,0.0581,0.052,0.0611,0.0857,0.0578,
MGESLFKGPRDYNPISSSICHLTNESDGHTTSLYGIGFGPFIITNKHLFRRNNGTLVVQSLAGVFKVKDTTTLQQHLVDGRDMIIIRMPKDFPPFPQKLKFREPQREERICLVTTNFQTKSMSSMVSDTSCTFPSGDGIFWKHWIQTKDGQCGSPLVSTRDGFIVGIHSASNFTNTNNYFTSVPKNFMELLTNQEAQQWVSGWRLNADSVLWGGHKVFMVKPEEPFQPVKEATQL [H62A],0.137,,0.101,0.0361,,0.0754,0.0997,0.076,0.0604,,0.0557,0.101,0.0644,,,0.0802,0.08,,
MGESLFKGPRDYNPISSSICHLTNEPDGHTTSLYGIGFGPFIITNKHLFRRNNGTLVVQSLHGVFKVKDTTTLQQHLVDGRDMIIIRMPKDFPPFPQKLKFREPQREERICLVTTNFQTKSMSSMVSDTSCTFPSGDGIFWKHWIQTKDGQCGSPLVSTRDGFIVGIHSASNFTNTNNYFTSVPKNFMELLTNQEAQQWVSGWRLNADSVLWGGHKVFMVKPEEPFQPVKEATQL [S26P],0.0643,0.0528,,0.0494,0.0474,,,,0.0409,0.0633,0.0561,0.0667,,0.049,,0.092,0.0584,0.0363,
MGESLFKGPRDYNPISSSICHLTNESDGHTTSLYGIGIGPFIITNKHLFRRNNGTLVVQSLHGVFKVKDTTTLQQHLVDGRDMIIIRMPKDFPPFPQKLKFREPQREERICLVTTNFQTKSMSSMVSDTSCTFPSGDGIFWKHWIQTKDGQCGSPLVSTRDGFIVGIHSASNFTNTNNYFTSVPKNFMELLTNQEAQQWVSGWRLNADSVLWGGHKVFMVKPEEPFQPVKEATQL [F38I],0.0872,,0.105,0.0632,0.0344,,0.0567,0.0733,,,0.0585,0.0856,0.0986,0.0504,,0.056,,0.0651,0.0236
MGESLFKGPRDYNPISSSICHLTNESDGHTTSLYGIGCGPFIITNKHLFRRNNGTLVVQSLHGVFKVKDTTTLQQHLVDGRDMIIIRMPKDFPPFPQKLKFREPQREERICLVTTNFQTKSMSSMVSDTSCTFPSGDGIFWKHWIQTKDGQCGSPLVSTRDGFIVGIHSASNFTNTNNYFTSVPKNFMELLTNQEAQQWVSGWRLNADSVLWGGHKVFMVKPEEPFQPVKEATQL [F38C],0.104,0.0308,0.0902,0.0494,,,0.0873,,,,0.0596,0.0915,0.05,0.0574,0.0794,,0.0741,0.0677,
MGESLFKGPRDYNPISSSICHLTNESDGHTTSLYGIGFGPFIITNKCLFRRNNGTLVVQSLHGVFKVKDTTTLQQHLVDGRDMIIIRMPKDFPPFPQKLKFREPQREERICLVTTNFQTKSMSSMVSDTSCTFPSGDGIFWKHWIQTKDGQCGSPLVSTRDGFIVGIHSASNFTNTNNYFTSVPKNFMELLTNQEAQQWVSGWRLNADSVLWGGHKVFMVKPEEPFQPVKEATQL [H47C],0.0404,,0.0681,,,0.0596,,0.0597,0.0651,0.0564,0.0382,0.0616,,,,0.0661,0.0923,0.0554,0.079
